The values that follow come from publication PMC4336329 (PLoS ONE, 2015).

The whole screen tested about 310,000 compounds, of which about 14,000 (4.5%) showed an effect of 50% or more. The effect is printed as a negative number. The list shows a part of the results.
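Further: peak tail current of the secondary pulse compared with the same well before compound.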

The target in the assay is human ether-à-go-go-related gene (hERG) potassium channel (human, UniProt Q12809). The experiment in a line: primary screen, population patch clamp on CHO cells stably expressing hERG.
Chain of human ether-à-go-go-related gene (hERG) potassium channel (Q12809 whole entry, looked up): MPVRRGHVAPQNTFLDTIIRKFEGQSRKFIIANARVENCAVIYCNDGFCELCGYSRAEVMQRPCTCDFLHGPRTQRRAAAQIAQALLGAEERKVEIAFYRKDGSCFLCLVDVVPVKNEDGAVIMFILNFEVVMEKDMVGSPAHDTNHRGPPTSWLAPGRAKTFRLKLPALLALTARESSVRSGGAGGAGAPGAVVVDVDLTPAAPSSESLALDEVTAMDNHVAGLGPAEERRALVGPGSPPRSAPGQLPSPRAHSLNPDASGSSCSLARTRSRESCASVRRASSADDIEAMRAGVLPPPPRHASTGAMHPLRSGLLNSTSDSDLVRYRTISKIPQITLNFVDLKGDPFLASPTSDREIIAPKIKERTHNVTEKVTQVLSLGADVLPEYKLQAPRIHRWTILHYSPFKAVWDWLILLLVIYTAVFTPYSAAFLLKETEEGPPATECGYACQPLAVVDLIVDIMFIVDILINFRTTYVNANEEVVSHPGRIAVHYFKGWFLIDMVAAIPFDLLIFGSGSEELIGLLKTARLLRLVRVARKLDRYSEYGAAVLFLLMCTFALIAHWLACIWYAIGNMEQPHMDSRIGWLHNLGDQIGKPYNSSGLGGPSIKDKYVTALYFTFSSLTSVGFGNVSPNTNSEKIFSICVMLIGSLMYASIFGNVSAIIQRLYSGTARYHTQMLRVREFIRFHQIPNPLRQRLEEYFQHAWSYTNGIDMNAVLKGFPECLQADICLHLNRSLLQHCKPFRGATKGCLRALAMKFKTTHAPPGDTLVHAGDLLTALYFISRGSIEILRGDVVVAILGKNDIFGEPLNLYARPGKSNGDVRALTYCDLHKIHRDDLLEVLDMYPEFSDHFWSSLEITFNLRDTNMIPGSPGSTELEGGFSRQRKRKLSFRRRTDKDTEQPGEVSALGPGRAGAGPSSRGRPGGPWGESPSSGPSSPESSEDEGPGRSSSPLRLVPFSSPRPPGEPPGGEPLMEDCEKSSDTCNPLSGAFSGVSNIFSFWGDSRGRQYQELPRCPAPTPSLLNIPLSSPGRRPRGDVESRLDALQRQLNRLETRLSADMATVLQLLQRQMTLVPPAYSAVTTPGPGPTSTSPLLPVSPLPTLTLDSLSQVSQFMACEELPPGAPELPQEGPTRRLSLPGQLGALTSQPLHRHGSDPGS
On to `O=C(NCCc1ccc(Cl)cc1)c1ccc(OCC2CCCO2)cc1` (stereo not shown), for which the “hERG current change (%, negative = inhibition) at 10uM” value is on record as 15.7%.
Then `COc1ccc(CCC(C)NCCc2ccc(Cl)cc2Cl)cc1` (stereo not shown), with -71.8%.
Then `CN(C)CCNc1oc(COc2cccc(Cl)c2)nc1C#N`, with -16.1%.
For the compound `O=C(OCCCOc1ccc(F)cc1)c1ccc(O)cc1O`, the “hERG current change (%, negative = inhibition) at 10uM” value was 8.42%.
Then `O=C(CN(C(=O)CNC(=O)c1cccs1)c1cccc(F)c1)NC1CCCCC1`, with -0.617%; and `O=C(NNc1ncccc1Cl)c1c(Cl)cccc1Cl`, with 4%.
In the case of `COc1ccc(CCNCC2C(Oc3ccc(Cl)cc3)C(=O)N2c2ccccc2C)cc1OC.Cl` (stereo not shown), the “hERG current change (%, negative = inhibition) at 10uM” value is listed as -41%.
Consider `COc1ccc(CN(C)C(C)C(=O)N(C)CC(=O)Nc2ccc(C)cc2)cc1F` (stereo not shown), for which the “hERG current change (%, negative = inhibition) at 10uM” value is on record as -57.1%.
Regarding `Cc1ccc(SCc2ccc(C(=O)Nc3cccc([N+](=O)[O-])c3C)cc2)cc1`, the “hERG current change (%, negative = inhibition) at 10uM” value was determined as 11.7%.
Take `CC(C)c1ccc(OCC(=O)N(Cc2ccccc2)c2ccccn2)cc1`: the “hERG current change (%, negative = inhibition) at 10uM” value is on record as 5.62%.
In the case of `CCOc1ccc(C(CC(=O)O)NC(=O)COc2ccc3ccccc3c2)cc1OC` (stereo not shown) it was 18.8%.
In the case of `COc1ccc(CCNS(=O)(=O)c2ccc(-n3cnnn3)cc2)cc1OC`, the “hERG current change (%, negative = inhibition) at 10uM” value is given as -26%.
In the case of `Cc1cc(C)n2nc(-c3ccco3)nc2n1` it was 1.34%; in that of `C=CCN(c1ccc(C(=O)Nc2ccc3c(c2)OCO3)cc1)S(C)(=O)=O`, 5.79%.
For the compound `COc1ccc(C(=O)O/N=C(/c2ccccc2)c2ccncc2)cc1OC`, the “hERG current change (%, negative = inhibition) at 10uM” value worked out at 16.7%.
As to `O=S(=O)(c1ccc(Cl)cc1)N1CCN(C(=S)Nc2ccccc2F)CC1`, the “hERG current change (%, negative = inhibition) at 10uM” value was determined as 2.92%.
Then `O=C(COC(=O)c1cc(-c2ccco2)nc2ccccc12)NCc1ccccc1`, with -11.3%.
Then `Cc1ccc(-c2[nH]ncc2/C=N/n2c(COc3ccccc3C)nc3ccccc3c2=O)cc1`, with -5.26%; and `O=C(CC1Nc2ccccc2NC1=O)c1ccccc1` (stereo not shown), with -2.01%.
As for `CC(=O)N1CCc2cc(S(=O)(=O)NCCC(=O)Nc3cccc(C)c3C)ccc21`, the “hERG current change (%, negative = inhibition) at 10uM” value amounted to 0.058%.
Then `CSCCC(NS(=O)(=O)c1ccc(C)cc1)C(=O)N1CCCCCCC1` (stereo not shown), with 0.736%; and `CN(c1cccc(NC(=O)CN2C(=O)c3ccccc3S2(=O)=O)c1)S(C)(=O)=O`, with -39.6%; and `COc1ccc(NC(=O)C#Cc2ccccc2)cc1OC`, with -4.68%.
Take `O=C(Nc1c2c(nn1-c1cccc(Cl)c1)CS(=O)(=O)C2)c1ccc2c(c1)OCO2`: the “hERG current change (%, negative = inhibition) at 10uM” value is -18.5%.
In the case of `O=C(CSc1n[nH]c(-c2ccccn2)n1)Nc1ccc(F)cc1` it was -1.32%; in that of `N#Cc1nc(-c2ccc(OCc3ccccc3)cc2)oc1NCCN1CCOCC1`, 21.5%; in that of `NS(=O)(=O)c1ccc(NC(=O)CSC2=NC(=O)C(c3ccccc3)C(=O)N2)cc1` (stereo not shown), 3.54%.
Then `O=C(O)c1cccc(S(=O)(=O)Nc2ccc(O)c(Sc3nc4ccccc4s3)c2)c1`, with 30.8%; and `Cc1ccc(S(=O)(=O)c2ccc(C)cc2)cc1`, with 12.1%.
In the case of `Cc1ccccc1/C=N/n1c(-c2cc(-c3ccccc3)n[nH]2)n[nH]c1=S` it was 11.4%; in that of `CC(C)(C)C(=O)NC(=O)Nc1ccccc1C(F)(F)F`, 24.1%; in that of `COc1ccc(C(=O)Nc2cc(C(F)(F)F)ccc2-n2cnc3ccccc32)cc1`, -31.5%.
On to `COc1ccc(NC(=O)c2ccccc2NS(=O)(=O)c2ccc(CNC(C)=O)cc2)c(OC)c1`, for which the “hERG current change (%, negative = inhibition) at 10uM” value is listed as 16.4%.
Regarding `CC(=O)c1nnn(-c2ccc([N+](=O)[O-])cc2C)c1C`, the “hERG current change (%, negative = inhibition) at 10uM” value is recorded as -7.85%.
As to `CN(C)[C@H]1N(C(=O)c2ccc(Br)cc2)N=C2c3ccccc3S(=O)(=O)N21`, the “hERG current change (%, negative = inhibition) at 10uM” value is reported as -28.9%.
For `COc1ccc(C2C(C#N)=C(N)Oc3cc(N)ccc32)cc1OC` (stereo not shown), the “hERG current change (%, negative = inhibition) at 10uM” value is given as -4.68%.
Then `Cl.c1ccc2c3c(c(CN4CCCCC4)cc2c1)COC3`, with -24.1%; and `CC1CC(C)(C)NC(=S)N1CCCC(=O)Nc1ccccc1F` (stereo not shown), with 10.6%; and `COc1ccc(S(=O)(=O)Nc2nnc(C)s2)cc1`, with -3.71%.
Then `CC(C(=O)Nc1ccc2c(c1)OCCO2)N1Cc2ccccc2C1=O` (stereo not shown), with 13.7%; and `CC(=O)c1ccccc1-c1csc2ncnc(Sc3nnnn3C)c12`, with -1.79%; and `COc1cc2c(cc1OC)CN(C(=O)Cc1ccccc1)CC2`, with -20.1%.
Then `O=C(COc1ccccc1C(=O)Nc1ccccc1)c1ccc(Br)cc1`, with -1%.
Take `NS(=O)(=O)c1ccc(NC(=O)COC(=O)c2ccc3c(c2)OCCO3)cc1`: the “hERG current change (%, negative = inhibition) at 10uM” value was 24%.
Then `CCn1c2ccccc2c2cc(/C=N/n3cnnc3)ccc21`, with -13.4%.
Take `Nc1nonc1-n1nnc(C(=O)N/N=C/c2ccccc2F)c1CN1CCOCC1`: the “hERG current change (%, negative = inhibition) at 10uM” value is recorded as -6%.
As for `Cc1ccc(C2(C)NC(=O)N(CC(=O)N3c4ccccc4NC(=O)CC3C)C2=O)cc1` (stereo not shown), the “hERG current change (%, negative = inhibition) at 10uM” value stood at 11%.
Consider `CCCCC(=O)Nc1ccc(NC(=O)c2cc(OC)c(OC)c(OC)c2)cn1`, for which the “hERG current change (%, negative = inhibition) at 10uM” value stood at 6.22%.
Then `Cc1ncn(-c2ccccc2)c1-c1ccccc1`, with -6.91%; and `Cn1c(CCC(=O)OCC(=O)NCC(F)(F)F)nc(=O)c2ccccc21`, with 8.92%.
In the case of `O=C(CN(C(=O)c1csnn1)c1ccc(F)c(Cl)c1)NC1CCCCC1` it was 19.3%; in that of `CC1=CC(C)(C)N2C(=O)C3(SCC(=O)N3c3ccc(F)cc3)c3cc(C)cc1c32` (stereo not shown), -6.42%; in that of `COc1ccc(Cl)cc1S(=O)(=O)N1CCN=C1c1ccccc1`, -5.83%.
Then `CC(=O)NS(=O)(=O)c1ccc(NC(=S)NC(=O)C(C)C)cc1`, with 12.9%.
With `O=C(Cn1ncc2c([nH]c3ccccc32)c1=O)NCCCN1CCN(c2ccccc2)CC1`, the “hERG current change (%, negative = inhibition) at 10uM” value is reported as -21.5%.
